Measured values from publication PMC4336329 (PLoS ONE, 2015).
The whole screen tested about 310,000 compounds, of which about 2,200 (0.71%) showed an effect of 50% or more. The effect is printed as a negative number. The list shows a part of the results.

Target: human ether-à-go-go-related gene (hERG) potassium channel (human, UniProt Q12809)
Assay: primary screen, population patch clamp on CHO cells stably expressing hERG

Chain of human ether-à-go-go-related gene (hERG) potassium channel (Q12809 whole entry, looked up): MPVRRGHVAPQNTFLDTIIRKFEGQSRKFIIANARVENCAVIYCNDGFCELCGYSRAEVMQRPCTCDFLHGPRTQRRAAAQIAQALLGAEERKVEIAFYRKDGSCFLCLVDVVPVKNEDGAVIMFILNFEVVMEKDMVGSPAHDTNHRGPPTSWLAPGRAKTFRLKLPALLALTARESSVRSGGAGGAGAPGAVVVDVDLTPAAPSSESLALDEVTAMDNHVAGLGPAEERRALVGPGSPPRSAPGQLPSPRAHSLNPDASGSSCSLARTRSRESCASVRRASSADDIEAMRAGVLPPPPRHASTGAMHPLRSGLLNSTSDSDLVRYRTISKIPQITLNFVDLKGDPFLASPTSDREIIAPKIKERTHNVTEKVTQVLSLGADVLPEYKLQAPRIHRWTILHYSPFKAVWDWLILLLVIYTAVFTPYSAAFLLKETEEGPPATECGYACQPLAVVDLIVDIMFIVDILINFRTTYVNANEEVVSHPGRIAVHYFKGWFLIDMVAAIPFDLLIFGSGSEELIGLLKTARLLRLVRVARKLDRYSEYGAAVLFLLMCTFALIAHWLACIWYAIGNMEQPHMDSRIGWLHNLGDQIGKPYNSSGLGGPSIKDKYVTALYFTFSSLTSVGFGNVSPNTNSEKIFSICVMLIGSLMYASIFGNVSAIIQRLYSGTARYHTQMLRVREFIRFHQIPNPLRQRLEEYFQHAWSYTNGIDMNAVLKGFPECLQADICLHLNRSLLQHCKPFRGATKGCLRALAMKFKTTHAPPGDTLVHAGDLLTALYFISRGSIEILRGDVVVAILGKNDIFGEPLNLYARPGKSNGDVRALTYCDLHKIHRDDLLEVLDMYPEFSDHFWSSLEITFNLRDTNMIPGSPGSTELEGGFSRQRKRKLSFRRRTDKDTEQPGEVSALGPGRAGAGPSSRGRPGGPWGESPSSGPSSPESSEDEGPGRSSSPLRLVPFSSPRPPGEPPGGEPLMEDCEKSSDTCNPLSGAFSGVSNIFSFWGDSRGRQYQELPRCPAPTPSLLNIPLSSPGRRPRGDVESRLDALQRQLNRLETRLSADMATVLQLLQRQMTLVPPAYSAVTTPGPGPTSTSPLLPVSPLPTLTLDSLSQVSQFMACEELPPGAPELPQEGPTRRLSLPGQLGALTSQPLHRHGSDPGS

| SMILES | hERG current change (%, negative = inhibition) at 1uM |
| --- | --- |
| O=C(Nc1ncn[nH]1)C(F)(F)C(F)F | -1.52% |
| O=C(CN1CCOCC1)Nc1ncc(Br)cc1Br | 4.34% |
| O=C1CC(c2ccccc2Cl)Cc2c1cnn2-c1nc2ccccc2s1 (centres unmarked) | 16.3% |
| O=C(CN1C(=O)c2ccccc2S1(=O)=O)N1CCc2ccccc2C1 | -5.32% |
| O=C(C1CCN(S(=O)(=O)c2cccnc2)CC1)N1CCN(c2cccc(Cl)c2)CC1 | -6.13% |
| O=S(=O)(/N=C(/Nc1ccc(F)cc1F)c1ccc(Cl)cc1)c1ccccc1 | 0.585% |
| Cc1cccc(C2CC(c3ccc(Cl)cc3)Nc3nc(N)nn32)c1 (centres unmarked) | -1% |
| O=C1CN(c2nc(-c3ccccc3)c3cc(Br)ccc3n2)c2ccccc2N1 | 11.2% |
| O=C1c2cccc3cccc(c23)N1Cc1cccc(F)c1 | 21.6% |
| COc1ccc(-n2c(C)cc(C(=O)CN3C(=O)NC4(CCCc5sccc54)C3=O)c2C)cc1 (centres unmarked) | 4.27% |
| O=C(CCNc1ccc(Cc2ccncc2)cc1)c1cccc([N+](=O)[O-])c1 | 5.39% |
| CN(C)CCSc1nc(N)c2c3c(sc2n1)CN(C)CC3 | 5.58% |
| O=C(N=Nc1c(O)[nH]c2ccc([N+](=O)[O-])cc12)c1cc(-c2ccccc2Cl)nc2ccccc12 | 7.27% |
| CC1=NOC(=O)/C1=C/c1ccc(O)cc1 | 16.7% |
| COc1ccccc1CNC(=O)C1CCC(=O)N(CCCN2CCCC2=O)C1 (centres unmarked) | 13.2% |
| CCCN1C(=O)CC(c2ccco2)Sc2ccccc21 (centres unmarked) | 12.5% |
| Cc1noc(C)c1-c1ccc2ncnc(NCC3CCCCN3C)c2c1 (centres unmarked) | 17.7% |
| CCOc1ncccc1C(=O)OCc1ccc(C(=O)OC)cc1 | 9.99% |
| Cc1cc(C)n(C)c(=O)c1C#N | 12.3% |
| COCCN(C(=O)COC(=O)/C=C/c1ccc2c(c1)OCO2)c1c(N)n(Cc2ccccc2)c(=O)[nH]c1=O | 11.7% |
| O=C(O)C(CCCCNS(=O)(=O)c1ccc(F)cc1)NS(=O)(=O)c1ccc(F)cc1 (centres unmarked) | 9.45% |
| CCCC(=O)Nc1c(-c2cccs2)c(=O)c2ccccc2n1CC | 6.42% |
| Cc1cccc(C)c1NC(=S)NC(C)(C)CO | 14.6% |

| SMILES | hERG current change (%, negative = inhibition) at 1uM |
| --- | --- |
| CCOc1ccc(NC(=S)Nc2ccc(F)cc2)cc1 | 4.89% |
| Cc1ccnc(NC(=O)c2oc3ccccc3c2C)c1 | 20.1% |
| Cn1ncc(C(=O)Nc2ccc(OC(F)(F)F)cc2)c1-n1cccc1 | -6.3% |
| CCC(=O)c1ccc(OCC(=O)OCC(=O)NCCCc2ccccc2)cc1 | 7.9% |
| Cc1cccc(NC(=O)CCN2CCN(C/C=C/c3ccccc3)CC2)c1.Cl | -82.5% |
| COc1ccc(CCNC(=O)CSc2nnc(-c3ccc(F)cc3)c3ccccc23)cc1OC | 6.51% |
| CC(=O)C1=C(O)C(=O)N(C2CCCCC2)C1c1ccccc1 (centres unmarked) | 8.39% |
| CC1CCc2[nH]nc(C(=O)O)c2C1 (centres unmarked) | -3.27% |
| Oc1ccccc1-c1nc(/C=C/c2ccccc2)nn1-c1ccccc1 | 11.9% |
| Cl.NC(CO)c1cn([C@@H](CCC(=O)O)C(=O)N2CCNCC2)nn1 (some centres unmarked) | 15.5% |
| O=C(NCCc1ccc(Cl)cc1)C1CCN(S(=O)(=O)N2CCCCC2)CC1 | 0.984% |
| Cc1ccc(NC(=O)Cc2nc(CCl)cs2)cc1.Cl | 12.7% |
| Cc1ccc([N+](=O)[O-])cc1NC(=O)Nc1onc(C)c1C | 12.9% |
| Cc1ccccc1CSCc1nc(N)nc(Nc2ccccc2C)n1 | 9.23% |
| N#CC1=C(N)NC(=S)C(C(N)=O)C1c1ccc([N+](=O)[O-])cc1 (centres unmarked) | 7.85% |
| CC1(C)C2CC[C@]1(C)C(=O)N(CCCCN1CCN(c3ccccn3)CC1)C2=O.Cl | -9.56% |
| CN1C(=O)/C(=C\c2ccccc2OCc2ccccc2)SC1=S | 10.6% |
| COc1ccc(NC(=O)CN(C)C(=O)c2cccc(S(=O)(=O)Nc3ccccc3Cl)c2)cc1 | 14.8% |
| CCCN=C(C)C1=C(O)c2ccccc2C1=O | 16.9% |
| CCN(CC)S(=O)(=O)c1ccc(NC2c3ccccc3C(=O)N2Cc2ccc3c(c2)OCO3)cc1 (centres unmarked) | 7.12% |
| CCN1CCCC1CN(Cc1cc2ccc(C)cc2[nH]c1=O)C(=S)Nc1ccc(OC)cc1 (centres unmarked) | 21.4% |
| O=C1CCC(C(=O)N2CCN(c3cnccn3)CC2)CN1CCc1cccc(F)c1 (centres unmarked) | 0.858% |
| Nc1nc2ncc(-c3ccsc3)c(N)n2n1 | -9.44% |

| SMILES | hERG current change (%, negative = inhibition) at 1uM |
| --- | --- |
| CC(C)CCC1(CCNC(C)c2cccs2)CCOC(C)(C)C1 (centres unmarked) | 9.66% |
| CCOC(=O)N1CCN(C(=O)c2ccc(NS(C)(=O)=O)cc2)CC1 | 6.24% |
| CCOC(=O)N1CCN(S(=O)(=O)c2ccc(C(=O)Nc3sc4c(c3C(N)=O)CC(C)(C)NC4(C)C)cc2)CC1 | 21.2% |
| Fc1ccc(Nc2nnc(C(F)(F)F)s2)cc1Cl | 10.6% |
| Cc1ccc(N2C(=O)C3CC(c4ccccc4)=C4C5C=CC(C6C(=O)N(c7ccc(C)cc7C)C(=O)C56)C4C3C2=O)c(C)c1 (centres unmarked) | 3.95% |
| N/C(=N\OC(=O)c1csnn1)c1ccc(C(F)(F)F)cc1 | 5.2% |
| CC(C)(C)NC(=O)CN(C(=O)c1snc(C(=O)NC2CCCCC2)c1N)c1ccc(F)cc1 | 8.62% |
| NNC(=O)CN1C(=O)CN=C(c2ccccc2)c2cc(Br)ccc21 | 5.59% |
| COc1cc(SC)ccc1C(=O)NCCOc1c(C)cc(C)cc1C | 5.5% |
| O=C(C1CCN(Cc2cc(Cl)ccc2O)CC1)N1CCN(Cc2ccccc2)CC1.O=C(O)C(=O)O | 8.19% |
| C#CCSc1nnc(-c2ccc(C)cc2)o1 | -5.3% |
| CCOC(=O)c1cc(-c2csc(COc3ccccc3Cl)n2)on1 | 8.86% |
| O=C(CS(=O)(=O)c1ccccc1)NCc1ccccc1 | -4.91% |
| Cc1nc(OCC(=O)c2ccc(Cl)cc2)c(C#N)c2c1COC(C)(C)C2 | 7.3% |
| COc1ccc(-c2noc(CCCC(=O)NC3CCCC3)n2)cc1 | 12% |
| O=C(O)C1C2CCC(O2)C1C(=O)NCCC1=CCCCC1 (centres unmarked) | 9.85% |
| CCOC(=O)c1cccc(NC(=O)CCNS(=O)(=O)c2cc(Br)cnc2N)c1 | 14.4% |
| COCCNc1nc2nonc2nc1N1C[C@H]2CC[C@H]1C2 | 9.25% |
| CN(C(=O)c1ccc(S(=O)(=O)c2cccc(Cl)c2)c([N+](=O)[O-])c1)C1CCCCC1 | -2.35% |
| CCOc1ccc(OCCSc2nnnn2C2CCCCC2)cc1 | -0.0753% |
| CC(C)(C)C(=O)NC(=S)N1CCc2ccccc21 | 10.8% |
| Cc1ccc(NS(=O)(=O)c2ccc3c(c2)NC(=O)CC(=O)N3)cc1C | 17% |
| Cc1ccc(Nc2nc(-c3cccnc3)cs2)cc1C | 9.64% |

| SMILES | hERG current change (%, negative = inhibition) at 1uM |
| --- | --- |
| CCOC(=O)/C=C/S(=O)(=O)c1ccc(NC(C)=O)cc1 | 19.5% |
| O=C(NC1CCCCC1)C(c1ccc(F)cc1)N(Cc1ccco1)C(=O)c1ccccn1 (centres unmarked) | 9.86% |
| CCOc1cc(CNC(C)(C)CO)cc(Br)c1OCc1ccc(Cl)cc1Cl | 13.6% |
| C=C(C)Cn1c(NCCOC)nc2c1c(=O)[nH]c(=O)n2C | 11% |
| COc1ccc(CCC(=O)Nc2cc(S(=O)(=O)N3CCCCC3)ccc2N(C)C)cc1 | -8.44% |
| Cc1ccc(C(=O)NC(C)c2ccc(-n3ccnc3)cc2)cc1 (centres unmarked) | -8.95% |
| COc1cc(-c2nnc(NC(=O)CS(=O)(=O)c3ccc(C)cc3)o2)cc(OC)c1OC | 17.1% |
| O=C(CN1C(=O)C2C3CCC(C3)C2C1=O)OCC(=O)c1ccc(Br)cc1 (centres unmarked) | 1.5% |
| CCCNC(=O)CSc1nccn1Cc1ccco1 | 14% |
| CCOC(=O)NC(=O)COC(=O)CNC(=O)c1ccc(OCC)c(OCC)c1 | 4.99% |
| CC(C)NS(=O)(=O)c1ccc(OCC(=O)N2CCc3ccccc3C2)cc1 | 14.8% |
| COc1cc2nc(C3CCC3)n(NC(=O)C3CCC3)c(=O)c2cc1OC | 15.7% |
| Cc1[nH]c2ccccc2c1C(=O)C(=O)N1CCN(c2ccccc2F)CC1 | 13.1% |
| CC1(C)NC(=O)N(CC(O)CNC23CC4CC(CC(C4)C2)C3)C1=O (centres unmarked) | 10.4% |
| Clc1ccc(-c2csc(-c3ccncc3)n2)cc1 | 6.31% |
| Cc1nnc(SCC(=O)N2CCC(C(N)=O)CC2)s1 | 10.1% |
| CCOc1ccc(N2CC(C(=O)Nc3cc(C)on3)CC2=O)cc1 (centres unmarked) | 2.53% |
| CCOC(=O)Cn1cnc2c(nnn2-c2cccc(Cl)c2)c1=O | -4.56% |
| Cc1ccc(-c2nnn(CC(=O)N3CCCc4ccccc43)n2)cc1 | -3.16% |
| COc1ccc(S(=O)(=O)N(C)CC(=O)Nc2ccc3c(c2)OCCO3)cc1 | 4.6% |
